# Results from PubChem BioAssay AID492947 (National Center for Advancing Translational Sciences (NCATS), 2010).
# Hit rate of the full screen: of about 330,000 compounds, about 80 (0.02%) were called active. This list was built around the results that the source calls inconclusive (neither active nor inactive); the mix of calls is not that of the screen. Calls follow the shape of the dose curve; as a rule, active = well fitted activation curve with a large enough effect; inconclusive = small, poorly fitted or top-dose-only effect; inactive = flat fitted curve, though single readings scatter. Potencies of inconclusive entries are left out as doubtful fits.
# Molecular target: Beta-2 adrenergic receptor (Homo sapiens) (UniProt P07550)
# Assay: qHTS assay of beta-arrestin-biased ligands of beta2-adrenergic receptor; also: nearly all actives have a fitted effect of over 65% in size;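 as to activation: 0% = DMSO controls and full agonism = EC100 isoproterenol or metaproterenol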
# Details: beta-arrestin recruitment to beta2AR, cell-based reporter; series mostly up to 46.1 µM; activation: at the top concentration
# Method in brief: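 Screening used a titration range of up to 46 microM in a beta-arrestin recruitment Tango luciferase assay. Cells in 1% FBS medium were treated 18 hr at 37 degrees C, and luminescence was normalized to %Activity.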
# Potency is read from the fitted curve at half-maximal effect; tags tell the direction and shape of the fitted curve.
# Chain of UniProt P07550 (P07550 whole entry, looked up): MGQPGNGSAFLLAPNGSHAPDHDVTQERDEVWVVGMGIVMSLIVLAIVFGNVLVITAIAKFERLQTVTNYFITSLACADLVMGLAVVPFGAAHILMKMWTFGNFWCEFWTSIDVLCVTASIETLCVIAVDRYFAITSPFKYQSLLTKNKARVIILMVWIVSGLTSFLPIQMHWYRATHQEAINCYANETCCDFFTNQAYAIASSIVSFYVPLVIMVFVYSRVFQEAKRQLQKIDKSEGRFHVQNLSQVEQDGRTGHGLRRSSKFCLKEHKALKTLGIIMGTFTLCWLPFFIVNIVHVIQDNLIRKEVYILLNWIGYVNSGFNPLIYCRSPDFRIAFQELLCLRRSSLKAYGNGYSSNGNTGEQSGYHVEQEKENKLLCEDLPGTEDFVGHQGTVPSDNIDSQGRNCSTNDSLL
SMILES,activation,Potency
O=C(Cn1nc2ccccc2n1)N/N=C/c1cc(Cl)cc([N+](=O)[O-])c1O,inactive: -0.838%,–
CNC(=S)N/N=C/c1cc(C)n(-c2ccc(Cl)c(Cl)c2)c1C,–,"inconclusive [rising, single point]"
N=c1n(Cc2ccccc2)c2ccccc2n1Cc1ccccc1,–,"inconclusive [rising, single point]"
O=C(COC(=O)c1ccc2ncsc2c1)Nc1ccc(OC(F)(F)F)cc1,–,"inconclusive [rising, single point]"
Cc1cc(C)c(C)c(S(=O)(=O)NCC(=O)NCc2ccco2)c1C,–,"inconclusive [rising, single point]"
Cc1cccc(-n2ncc3c(Nc4c(C)n(C)n(-c5ccccc5)c4=O)ncnc32)c1,–,"inconclusive [rising, single point]"
Cc1cccc(NC(=S)Nc2cccc(C)n2)n1,–,"inconclusive [rising, single point]"
CC(/C=C/c1ccc2c(c1)OCO2)=N/NC(=O)c1cccnc1,–,"inconclusive [rising, single point]"
C/C(=N\NC(=S)NCc1ccccc1)c1ccc(Br)cc1,–,"inconclusive [rising, single point]"
CC1(C)C(=O)NC(=O)N1Cc1ccccc1,inactive: 0.192%,–
CCOC(=O)C1(C)/C(=N/Nc2ccccc2OC)C(=O)C(=O)N1c1ccccc1 (configuration not stated),inactive: 0.053%,–
COc1ccc(C(CNC(=O)c2ccc(C)c(S(=O)(=O)Nc3ccccc3OC)c2)N2CCCC2)cc1 (configuration not stated),–,"inconclusive [rising, single point]"
CC(=O)c1cc2c(cc1NC(=O)c1ccc(C)cc1)OCO2,–,"inconclusive [rising, single point]"
C=CCn1c(-c2ccc(Cl)cc2)c[nH]c1=S,–,active: 20 µM
Cc1ccnc2nc(C(=O)OCC(=O)N(Cc3ccccc3)C(C)(C)C)nn12,–,"inconclusive [rising, single point]"
CN1CCN(c2ccc(C(F)(F)F)cc2NC(=O)c2ccco2)CC1,–,"inconclusive [rising, single point]"
CCCn1nnc(NC(=S)NC(=O)Cc2ccccc2)n1,–,"inconclusive [rising, single point]"
CC1(C)CC(=O)c2cnc(NCC3CCCO3)nc2C1 (configuration not stated),–,"inconclusive [rising, single point]"
Cc1nc(SCC(=O)N2CCOCC2)c2c3c(sc2n1)CCC3,–,"inconclusive [rising, single point]"
Cc1cc2c(cc1[N+](=O)[O-])NC(CNC(C)C)CC2 (configuration not stated),inactive: -0.692%,–
Cc1nn(CC(C)C(=O)N2CCN(S(=O)(=O)c3ccc(Cl)cc3)CC2)c(C)c1C (configuration not stated),inactive: 0.0219%,–
O=C(NNC1=Nc2ccccc2SC1)c1ccccc1F,inactive: 0.382%,–
C=CCn1c(-c2oc3nc(-c4ccccc4)cc(-c4ccccc4)c3c2N)n[nH]c1=S,inactive: -2.01%,–
CCN(CC)CCN(Cc1cc2cc3c(cc2[nH]c1=O)OCCO3)C(=S)NCC1CCCO1 (configuration not stated),–,"inconclusive [activator, partial curve]"

SMILES,activation,Potency
Cc1ccc(C(=O)Oc2ccc(Cl)c3cccnc23)cc1[N+](=O)[O-],–,"inconclusive [activator, partial curve]"
CC(NC(=O)COC(=O)CCc1ccc(S(=O)(=O)N2CCOCC2)cc1)C1CC2CCC1C2 (configuration not stated),–,"inconclusive [rising, single point]"
N#CCOC(=O)[C@H](Cc1ccccc1)N1C(=O)c2ccccc2C1=O,inactive: -0.32%,–
COC(=O)C1=C(COc2ccc(F)cc2)NC(=O)NC1c1ccc(C)cc1C (configuration not stated),inactive: -0.171%,–
Cc1onc(-c2c(F)cccc2Cl)c1C(=O)ONC(=O)c1ccco1,inactive: -0.691%,–
CN(CCC#N)C(=O)COC(=O)c1ccccc1C(=O)c1ccc(Cl)c([N+](=O)[O-])c1,inactive: -0.105%,–
CCC1CCCCN1CC(=O)Nc1cc(C)nn1-c1nc(C)cc(C)n1 (configuration not stated),–,active: 35.5 µM
CC1=NN(C(N)=S)C(=O)C1N=Nc1ccc(Cl)cc1 (configuration not stated),–,"inconclusive [rising, single point]"
CC1COc2ccccc2N1S(=O)(=O)c1ccc(Cl)cc1 (configuration not stated),inactive: -0.278%,–
Cc1ccc(SCCC(=O)NC(C)C)cc1,–,"inconclusive [rising, single point]"
O=C(CSc1cccc[n+]1[O-])Nc1ccccc1Oc1ccccc1,–,"inconclusive [rising, single point]"
CCn1c2ccccc2c2c3ncc4cccn4c3ccc21,–,"inconclusive [rising, single point]"
Cc1cc(NC(=S)Nc2ccc(C)c(Cl)c2)n[nH]1,–,"inconclusive [rising, single point]"
Cc1ccc(/C(=N/Nc2ncnc3ccccc23)C(=O)O)cc1,–,active: 11.2 µM
CCC(C)n1ncn(-c2ccc(N3CCN(c4ccc(OCC5COC(Cn6cncn6)(c6ccc(Cl)cc6Cl)O5)cc4)CC3)cc2)c1=O (configuration not stated),–,"inconclusive [rising, partial curve, poor fit]"
CCN(Cc1ccccc1)S(=O)(=O)c1ccc(C(=O)N(CCCN(C)C)c2nc3c(C)c(C)ccc3s2)cc1,inactive: -1.53%,–
Cc1ccc(CCNC(=O)CS(=O)Cc2nc(-c3ccccc3Cl)oc2C)cc1 (configuration not stated),inactive: -0.562%,–
Cc1cc(C(=O)C(C)Sc2cccc[n+]2[O-])c(C)n1-c1ccc(Cl)cc1 (configuration not stated),–,"inconclusive [rising, single point]"
COc1ccccc1-c1cc(C(=O)N2CCN(c3ccccc3OC)CC2)no1,–,"inconclusive [rising, single point]"
Clc1ccc(Cn2c(/C=C/c3ccco3)nc3ccccc32)cc1,–,"inconclusive [rising, single point]"
CN(C)/C=C1\C=C(c2ccccc2)OC1=O,–,"inconclusive [rising, single point]"
CN(C)CCCN(C(=O)c1ccc(S(=O)(=O)N2CCCCCC2)cc1)c1nc2ccc(F)cc2s1,inactive: -0.487%,–
COc1cccc(CN2CCN(Cc3cccc(Oc4ccccc4)c3)CC2)c1OC,inactive: -0.287%,–
